Results: PubChem BioAssay AID445 (National Center for Advancing Translational Sciences (NCATS), 2006)
About 40 (0.04%) of roughly 110,000 compounds were called active. The shares of active, inactive and inconclusive entries below differ from those in the screen. Calls come from the whole dose curve; as a rule, active = well fitted curve in the direction sought with a large enough effect in the signal ratio (not every such curve was filed as active); inconclusive = small, poorly fitted or top-dose-only effect, or a change in a side signal; inactive = flat fitted curve, though single readings scatter; the % refers to the signal ratio. Where the call is inconclusive, the potency comes from a doubtful curve fit.

assay: IkB Signaling; conditions: ABC-DLBCL IkBa-CBG/CBR dual luciferase ratio (green luciferase fused to IkBa over red control in OCI-Ly3 lymphoma cells), 4 h; IkBa stabilization activation: at 57.1 µM (top of the series), scaled: untreated 0%, proteasome inhibitor 100% unless noted;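 for IkBa stabilization activation: 0% = basal untreated cells and 100% = reference inhibitor full response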
In short: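 Luminescence ratio of IκBα-fused green versus native red beetle luciferase in OCI-Ly3 cells, 4 h post-doxycycline with compound; red signal alone, scaled from basal (0%) to zero light (-100%), flagged nonspecific or cytotoxic effects.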
Potency is the fitted concentration of half-maximal effect.

Row | SMILES | IkBa stabilization activation | Potency
1 | O=C(CCn1c(=O)c2cccn2c2ccc(F)cc21)NCCc1ccc(Cl)cc1 | inconclusive: 3.25% [signal inhibitor] | –
2 | Clc1ccc(-c2ccc(CNCCSc3nnnn3-c3ccccc3)o2)cc1 | inconclusive: 4.94% [signal inhibitor] | –
3 | Clc1ccccc1-c1nc(-c2ccncc2)no1 | inactive: 1.18% [at 11.4 µM, scaled: untreated 0%, proteasome inhibitor 100%] | –
4 | CCN1CCN(c2oc(-c3ccc(COc4ccc(OC)cc4)o3)nc2C#N)CC1 | inconclusive: -1.04% [signal inhibitor] | –
5 | COc1cc(OC)cc(C(=O)NCCn2ccc3ccccc32)c1 | inconclusive: 3.84% [signal inhibitor] | –
6 | CCN(CC)S(=O)(=O)c1nnc(NC(=O)COc2ccccc2)s1 | inactive | –
7 | O=C1c2ccccc2C(=O)N1c1nc(-c2cccs2)cs1 | – | inconclusive: 25.1 µM [signal inhibitor, partial curve]
8 | Cc1ccnc(SCC(=O)Nc2sc3c(c2C#N)CCCC3)n1 | inactive | –
9 | COc1ccc(C(=O)COC(=O)CN2C(=O)NC(C)(C)C2=O)cc1OC | inactive | –
10 | Cc1ccc(Cl)cc1-n1c(=O)c2sc3ccccc3c2n(CC(=O)NC2CCCC2)c1=O | inconclusive: 4.69% [signal inhibitor] | –
11 | COc1ccccc1CNS(=O)(=O)c1c(C(=O)N2CCC(C)CC2)c(C)n(C)c1C | inactive | –
12 | CC(C)c1ccc(S(=O)(=O)N2CCN(CC(=O)Nc3ccc4c(c3)OCO4)CC2)cc1 | inconclusive: 2.42% [signal inhibitor] | –
13 | COc1ccc(CC(=O)Nc2c(C(=O)N3CCN(c4ccccc4F)CC3)oc3ccccc23)cc1OC | inconclusive: 1.8% [signal inhibitor] | –
14 | C[C@H](Oc1ccc(Oc2cnc3ccc(Cl)cc3n2)cc1)C(=O)O | inactive | –
15 | CCOc1ccc(OCC)c(Nc2nc3ccccc3n3nnnc23)c1 | inactive | –
16 | O=C(CN1C=NS(=O)(=O)c2ccccc21)Nc1ccc(Br)cc1 | inactive | –
17 | O=C1C2=C(Nc3ccccc3SC2c2ccc(C(F)(F)F)cc2)c2ccccc21 (stereo not given) | inconclusive: 2.3% [signal inhibitor] | –
18 | Cc1nc(N2CCN(C(=O)c3ccco3)CC2)c2c3c(sc2n1)CCC3 | inconclusive: 4.72% [signal inhibitor] | –
19 | COc1ccc(NC(=O)CSC2=Nc3ccccc3C3=NC(Cc4ccccc4)C(=O)N23)cc1 (stereo not given) | inactive | –
20 | COc1ccc(NC(=O)c2c(NC(=O)c3cccc(C)c3)sc3c2CCC3)cc1 | inconclusive: 12.1% [signal inhibitor] | –
21 | COc1cccc(CNC(=O)c2ccc3oc(=O)n(Cc4ccccc4)c3c2)c1 | inconclusive: 3.77% [signal inhibitor] | –
22 | COCCNC(=O)c1ccc2c(c1)NC(=O)C(CS(=O)(=O)Cc1ccc(F)cc1Cl)N2 (stereo not given) | inconclusive: 0.0675% [signal inhibitor] | –
23 | COc1ccc(NC(=O)C2CCN(c3nc4ccccc4[nH]3)CC2)cc1OC | inactive | –

Row | SMILES | IkBa stabilization activation | Potency
24 | Cc1ccc(NC(=O)CSc2nnc(C)s2)c(C)c1 | inactive | –
25 | O=C(Nc1nnc(-c2ccccc2)o1)NC1CCCCC1 | – | inconclusive: 6.31 µM [rising, single point]
26 | Cc1cc(O)c(C(c2ccc(F)cc2)N2CCN(c3ccccc3)CC2)c(=O)n1Cc1ccco1 (stereo not given) | inconclusive: 2.87% [signal inhibitor] | –
27 | O=C(CSc1nc2c(c(=O)[nH]1)CCC2)Nc1cccc(O)c1 | inconclusive: 0.103% [signal inhibitor] | –
28 | COc1ccc(OC)c(NC(=O)Nc2cccc(OCc3cc(=O)n4cc(C)ccc4n3)c2)c1 | inconclusive: 11.6% [signal inhibitor] | –
29 | CCOc1ccc(-n2ccnc2SCC(=O)NCc2ccc3c(c2)OCO3)cc1 | inconclusive: 2.78% [signal inhibitor] | –
30 | Cc1ccc(N2CCN(c3ncnc4onc(-c5ccc(F)cc5)c34)CC2)c(C)c1 | inconclusive: 1.06% [signal inhibitor] | –
31 | COc1ccc(-n2nnnc2C2CCN(S(=O)(=O)c3cc(Cl)ccc3OC)CC2)cc1 | inconclusive: -1.07% [signal inhibitor] | –
32 | CCOC(=O)NCc1cc(-c2nn(C)c(=O)c3ccccc23)ccc1C | inconclusive: 2.53% [signal inhibitor] | –
33 | Cc1ccc(S(=O)(=O)NCCc2nnc3ccc(SCc4cccc(F)c4)nn23)cc1 | inconclusive: 0.412% [signal inhibitor] | –
34 | CCN(CC)c1ccc(NC(=O)CN2CCN(S(=O)(=O)c3ccc(C(C)C)cc3)CC2)cc1 | inconclusive: 0.804% [signal inhibitor] | –
35 | COc1cc(NC(=O)Cn2c(=O)n(Cc3ccccc3)c(=O)c3oc4ccccc4c32)cc(OC)c1 | inconclusive: 1.3% [signal inhibitor] | –
36 | CCOC(=O)c1c(S(=O)(=O)N2CCC(C(=O)Nc3ccc(C)cn3)CC2)c(C)n(C)c1C | inactive | –
37 | CCOC(=O)C1CCCN(C(=O)c2sc3nc(-c4ccc(OC)cc4)cn3c2C)C1 (stereo not given) | – | inconclusive: 15.8 µM [signal inhibitor, partial curve]
38 | Cc1cc(-c2ccc(S(=O)(=O)Nc3ccccc3C)cc2)on1 | inconclusive: -2.9% [signal inhibitor] | –
39 | CC(C)Cn1c(SC(C)C(=O)Nc2ccc3c(c2)OCCO3)nc2ccccc2c1=O (stereo not given) | inconclusive: 1.19% [signal inhibitor] | –
40 | c1ccc(Nc2cc(-c3ccccc3)nc3ncnn23)cc1 | inactive | –
41 | COc1ccc(-c2noc(CC(=O)N(C)c3ccccc3F)n2)cc1 | inconclusive: -0.678% [signal inhibitor] | –
42 | Cc1nc(N2CCOCC2)c2c(C(=O)N3CCN(c4cc(Cl)ccc4C)CC3)c(C)oc2n1 | inconclusive: 0.885% [signal inhibitor] | –
43 | O=C(CN1C(=O)C2CCCCN2c2ccc(C(=O)N3CCCC3)cc21)NCc1ccc(F)cc1 (stereo not given) | inactive | –
44 | Cc1ccc(C(=O)Nc2cccc(C(=O)O)c2)cc1S(=O)(=O)N1CCCCC1 | inactive | –
45 | CCOc1ccccc1CNc1ncnc2onc(-c3ccc(F)cc3)c12 | inactive | –
